# Reference: PubChem BioAssay (Tox21)
# Several values for one entry are separate records, joined by “and”; a condition that tells them apart may be missing. Equal values may be shown once. Inconclusive means that the source gave no clear call. Such entries were picked first, then a sample of the others. For part of these data: Potencies of inconclusive entries are doubtful fits and often do not repeat. Activity calls are given as the source filed them. Unless noted, calls follow the shape of the dose curve; as a rule, active = well fitted curve in the direction sought with a large enough effect in the repeat runs; inconclusive = weak or mixed curves; inactive = no such curve, though single readings can be large; an effect the other way counts as inactive or inconclusive.
# How the values were obtained:
# [1] = qHTS assay to identify small molecule antagonists of the androgen receptor (AR) signaling pathway using the MDA cell line in the presence of 0.5 nM R1881 - cell viability counter screen (AID 1259242); also: nearly all actives have a fitted effect of over 45% in size
# Method in brief: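 Live-cell protease activity was measured by CellTiter-Fluor fluorescence after 30 min. Before that, MDA-kb2 MMTV-luciferase cells had 16 hr at 37C without CO2, exposed to test compounds and 0.5 nM R1881 final.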
# [2] = target: Estrogen receptor (Homo sapiens) (UniProt P03372); test: qHTS assay to identify small molecule antagonists of the estrogen receptor alpha (ER-alpha) signaling pathway using the BG1 cell line in the presence of 0.1 nM 17-beta-estradiol (AID 1259244); also: nearly all actives have a fitted effect of over 50% in size; as to activity change, negative = inhibition: % is scaled to controls: 0 for no effect and ±100 for the full control effect
# Method in brief: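 Luciferase luminescence (ONE-Glo, 30 min at room temperature) was read after 22 hr at 37C exposure to compounds plus 17beta-estradiol at 0.1 nM final. Cells were VM7Luc4E2 with endogenous ER-alpha and an ERE-driven luciferase, pre-cultured 5 days in hormone-depleted medium.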
# [3] = qHTS assay to identify small molecule agonists of the sonic hedgehog signaling (Shh) pathway - cell viability counter screen (AID 1259366); also: nearly all actives have a fitted effect of over 50% in size
# Method in brief: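 Cytotoxicity counter screen: CellTiter-Fluor reagent added after 23 h compound exposure, then 1 h at 37C and fluorescence read. Cells were 3T3 Gli1-Luc, seeded 2,000 per well and dosed 4 h post-plating.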
# [4] = target: Androgen receptor (Homo sapiens) (UniProt P10275); test: qHTS assay to identify small molecule antagonists of the androgen receptor (AR) signaling pathway using the MDA cell line in the presence of 0.5 nM R1881 (AID 1259243); also: nearly all actives have a fitted effect of over 50% in size
# Method in brief: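 Luminescent reporter readout (ONE-Glo, 30 min, room temperature) after 16 hr co-treatment of MDA-kb2 cells with test compounds and 0.5 nM R1881 final, at 37C without CO2. The MMTV-driven luciferase responds to both AR and GR.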
# [5] = qHTS assay to identify small molecule antagonists of the sonic hedgehog signaling (Shh) pathway - cell viability counter screen (AID 1259367); also: nearly all actives have a fitted effect of over 55% in size
# Method in brief: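 CellTiter-Fluor signal in conditioned medium-stimulated 3T3 Gli1-Luc cells, 23 hr compound exposure, 37C.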
# [6] = qHTS assay to identify small molecule agonists of the sonic hedgehog signaling (Shh) pathway (AID 1259368; calls by dose curve; also: nearly all actives have a fitted effect of over 15% in size)
# Method in brief: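 Luminescence was read after 30 min at room temperature with luciferase reagent. Before that, 3T3Gli1-Luc cells (NIH/3T3 clone, stable Gli1-Luc reporter; 2,000/well) were exposed to compounds for 24 hr at 37C, 5% CO2, compounds being added 4 hr post-plating.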
# [7] = qHTS assay to identify small molecule antagonists of the sonic hedgehog signaling (Shh) pathway (AID 1259369; calls by dose curve; also: nearly all actives have a fitted effect of over 45% in size)
# Method in brief: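 Antagonist mode: compound added to 3T3 Gli1-Luc cells followed by conditioned-medium stimulation, 24 h at 37 C, 5% CO2. Inhibition taken as loss of Gli1-driven luciferase luminescence.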
# [8] = target: Estrogen receptor beta (Homo sapiens) (UniProt Q92731); test: qHTS assay to identify small molecule antagonists of the estrogen receptor beta (ER-beta) signaling pathway (AID 1259378; active = well fitted inhibition curve with a large enough effect in the signal ratio in the repeat runs, not every such curve was filed as active; inconclusive = weak or mixed curves, or effect the other way; inactive = no such curve, though single readings can be large or run the other way; the % refers to the signal ratio; as to activity, negative = inhibition: % is scaled to controls: 0 for no effect and ±100 for the full control effect); details: ER-beta-UAS-bla HEK293T, beta-lactamase FRET ratio, 16 h; activity, negative = inhibition: at 92.4 µM (top of the series) unless noted
# Method in brief: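 Antagonist mode: compounds added to beta-lactamase reporter HEK293T ER-beta-UAS cells stimulated with E2 (1nM final), 16 hr at 37C. LiveBLAzer B/G FRET substrate, 2 hours room temperature, fluorescence read-out.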
# [9] = qHTS assay to identify small molecule agonists of the androgen receptor (AR) signaling pathway in the presence of an antagonist - cell viability counter screen (AID 1259379); also: nearly all actives have a fitted effect of over 25% in size
# Method in brief: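 Cytotoxicity counter-screen run in the same wells as the nilutamide-challenged (3.0 µM final) AR agonist assay in MDA-kb2 cells. Compounds tested at 15 concentrations for 16 h, 37 °C without CO2; CellTiter-Fluor fluorescence read.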
# [10] = qHTS assay to identify small molecule agonists of the estrogen receptor beta (ER-beta) signaling pathway - cell viability counter screen (AID 1259380); also: nearly all actives have a fitted effect of over 30% in size
# Method in brief: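 Cell viability counter screen: CellTiter-Glo luminescence (30 min, room temperature) measured in the same wells as the beta-lactamase readout, after 16 hr compound exposure at 37C of ER-beta-bla HEK293T cells in 2% charcoal-stripped FBS medium.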
# [11] = target: Estrogen receptor (Homo sapiens) (UniProt P03372); test: qHTS assay to identify small molecule agonists of the estrogen receptor alpha (ER-alpha) signaling pathway in the presence of an antagonist (AID 1259383; calls by dose curve; also: nearly all actives have a fitted effect of over 15% in size)
# Method in brief: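 Agonist-mode confirmation run in the presence of 10.0nM (final) ICI-182,780 antagonist. The reporter was ERE-driven luciferase in VM7Luc4E2 cells, grown in charcoal-stripped serum. Cells were exposed to 15-concentration compound series for 22hr, then ONE-Glo luminescence was read.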
# [12] = qHTS assay to identify small molecule agonists of the estrogen receptor alpha (ER-alpha) signaling pathway in the presence of an antagonist - cell viability counter screen (AID 1259386); also: nearly all actives have a fitted effect of over 30% in size
# Method in brief: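 Compounds tested at 15 concentrations for 22 h at 37C alongside 10.0nM (final) ICI-182,780 antagonist, in VM7Luc4E2 cells grown in phenol red-free, charcoal-stripped medium. Viability read by CellTiter-Fluor fluorescence after 1 h reagent incubation.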
# [13] = qHTS assay to identify small molecule antagonists of the estrogen receptor beta (ER-beta) signaling pathway - cell viability counter screen (AID 1259382); also: nearly all actives have a fitted effect of over 55% in size
# Method in brief: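 Cytotoxicity was measured in the same wells by CellTiter-Glo luminescence after 30 min at room temperature. Cells were ER-beta-bla HEK293T in charcoal-stripped serum, given compound together with 1 nM E2 and incubated 16 h at 37C.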
# [14] = qHTS assay to identify small molecule HDAC inhibitors - cell viability counter screen (AID 1259365); also: nearly all actives have a fitted effect of over 50% in size
# Method in brief: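 CellTiter-Glo luminescence (30 min, room temperature) reported viability after a 2 h compound exposure at 37 C. Cells: wild-type HCT-116, 1,500 per well, seeded the night before.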
# [15] = target: Estrogen receptor beta (Homo sapiens) (UniProt Q92731); test: qHTS assay to identify small molecule agonists of the estrogen receptor beta (ER-beta) signaling pathway (AID 1259377; active = well fitted activation curve with a large enough effect in the signal ratio in the repeat runs, not every such curve was filed as active; inconclusive = weak or mixed curves, or effect the other way; the % refers to the signal ratio; as to activation: % is scaled to controls: 0 for no effect and ±100 for the full control effect); details: ER-beta-UAS-bla HEK293T, beta-lactamase FRET ratio, 16 h; activation: at 92.4 µM (top of the series) unless noted
# Method in brief: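 Ratiometric beta-lactamase FRET read-out came after 2 h substrate loading at room temperature. It followed 16 h compound treatment at 37C of GripTite HEK293T cells carrying a UAS-bla reporter, plated in 2% charcoal-stripped FBS medium.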
# [16] = target: Thyrotropin receptor (Homo sapiens) (UniProt P16473); test: qHTS assay to identify small molecule antagonists of the thyroid stimulating hormone receptor (TSHR) signaling pathway (AID 1259385; calls by dose curve; also: nearly all actives have a fitted effect of over 20% in size; as to activity change, negative = inhibition: % is scaled to controls: 0 for no effect and ±100 for the full control effect); details: TSHR-HEK293 cAMP HTRF, TSH-stimulated antagonist mode; activity change, negative = inhibition: at 92.4 µM (top of the series) unless noted
# Method in brief: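 Antagonist mode: compound-treated TSHR-expressing HEK293 cells were stimulated with 1.5 ng/mL TSH (final) in presence of Ro20-1724 for 30 min at RT. HTRF cAMP detection after 1 h; each compound tested at 15 concentrations, triplicate.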
# [17] = qHTS assay to identify small molecule HDAC inhibitors (AID 1259364); also: nearly all actives have a fitted effect of over 45% in size
# Method in brief: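 Luminescence read after 30 min room-temperature HDAC-Glo incubation measures cellular class I/II HDAC activity. Compounds were applied for 2 hr at 37 C to HCT-116 wild-type cells seeded the day before.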
# Potency is read from the fitted curve at half-maximal effect; tags tell the direction and shape of the fitted curve or compound fluorescence and quenching.
# UniProt P16473, sequence (P16473 whole entry, looked up): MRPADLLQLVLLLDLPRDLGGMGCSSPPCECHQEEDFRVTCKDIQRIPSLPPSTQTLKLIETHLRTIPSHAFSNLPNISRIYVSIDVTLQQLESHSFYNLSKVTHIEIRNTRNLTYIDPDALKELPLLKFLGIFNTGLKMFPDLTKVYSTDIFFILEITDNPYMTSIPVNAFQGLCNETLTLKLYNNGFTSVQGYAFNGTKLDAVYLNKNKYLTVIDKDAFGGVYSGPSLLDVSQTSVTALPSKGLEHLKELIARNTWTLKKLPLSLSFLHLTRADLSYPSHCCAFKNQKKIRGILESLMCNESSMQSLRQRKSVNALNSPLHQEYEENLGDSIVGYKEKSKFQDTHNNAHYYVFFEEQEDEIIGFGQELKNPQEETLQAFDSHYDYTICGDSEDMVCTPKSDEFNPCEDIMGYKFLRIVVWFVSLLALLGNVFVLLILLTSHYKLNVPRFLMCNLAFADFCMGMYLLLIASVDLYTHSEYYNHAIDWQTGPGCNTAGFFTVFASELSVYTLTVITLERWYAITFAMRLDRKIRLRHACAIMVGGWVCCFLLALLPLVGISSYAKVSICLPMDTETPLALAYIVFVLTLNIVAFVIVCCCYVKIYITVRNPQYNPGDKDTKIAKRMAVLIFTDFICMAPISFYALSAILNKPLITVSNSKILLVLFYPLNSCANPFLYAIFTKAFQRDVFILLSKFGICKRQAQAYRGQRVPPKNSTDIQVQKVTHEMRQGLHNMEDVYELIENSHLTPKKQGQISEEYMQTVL
# UniProt P10275, sequence (P10275 whole entry, looked up): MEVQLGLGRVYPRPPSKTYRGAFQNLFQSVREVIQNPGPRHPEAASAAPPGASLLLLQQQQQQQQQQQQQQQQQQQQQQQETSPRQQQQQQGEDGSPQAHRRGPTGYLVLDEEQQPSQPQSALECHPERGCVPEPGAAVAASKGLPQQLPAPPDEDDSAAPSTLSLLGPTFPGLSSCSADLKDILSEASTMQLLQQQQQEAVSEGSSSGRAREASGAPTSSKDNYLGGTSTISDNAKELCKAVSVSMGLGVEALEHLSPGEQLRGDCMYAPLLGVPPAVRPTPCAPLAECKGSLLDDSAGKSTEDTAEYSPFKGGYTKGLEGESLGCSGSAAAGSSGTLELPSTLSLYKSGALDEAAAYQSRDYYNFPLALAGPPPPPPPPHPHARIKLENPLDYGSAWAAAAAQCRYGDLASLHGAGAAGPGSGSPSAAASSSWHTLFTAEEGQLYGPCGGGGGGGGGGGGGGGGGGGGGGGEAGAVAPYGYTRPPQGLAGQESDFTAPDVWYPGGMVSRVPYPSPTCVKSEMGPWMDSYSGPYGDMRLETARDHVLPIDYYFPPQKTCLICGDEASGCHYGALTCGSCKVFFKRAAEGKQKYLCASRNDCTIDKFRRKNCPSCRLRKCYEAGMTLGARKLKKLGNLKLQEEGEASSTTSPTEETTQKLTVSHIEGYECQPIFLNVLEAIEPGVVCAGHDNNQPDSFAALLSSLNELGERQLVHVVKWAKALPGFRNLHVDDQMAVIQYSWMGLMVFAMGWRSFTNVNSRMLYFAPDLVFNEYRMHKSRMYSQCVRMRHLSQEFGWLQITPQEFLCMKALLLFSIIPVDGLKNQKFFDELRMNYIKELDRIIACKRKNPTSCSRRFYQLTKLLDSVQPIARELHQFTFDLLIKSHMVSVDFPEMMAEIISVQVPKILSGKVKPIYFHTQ
# UniProt Q92731, sequence (Q92731 whole entry, looked up): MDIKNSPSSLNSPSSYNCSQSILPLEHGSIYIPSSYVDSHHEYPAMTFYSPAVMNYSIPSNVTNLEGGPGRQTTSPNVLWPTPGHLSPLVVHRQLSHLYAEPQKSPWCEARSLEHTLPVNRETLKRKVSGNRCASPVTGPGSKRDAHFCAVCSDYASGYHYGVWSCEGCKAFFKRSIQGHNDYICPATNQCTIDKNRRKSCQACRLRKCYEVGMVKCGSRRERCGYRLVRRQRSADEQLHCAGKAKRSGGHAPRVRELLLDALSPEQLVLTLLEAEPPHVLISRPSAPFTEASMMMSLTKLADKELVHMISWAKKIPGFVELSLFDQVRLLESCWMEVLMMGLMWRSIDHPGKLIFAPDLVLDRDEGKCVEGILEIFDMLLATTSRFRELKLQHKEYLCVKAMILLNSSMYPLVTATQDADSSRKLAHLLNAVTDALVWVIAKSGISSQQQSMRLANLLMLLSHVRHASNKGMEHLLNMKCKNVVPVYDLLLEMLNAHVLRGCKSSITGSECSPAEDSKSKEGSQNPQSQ
# UniProt P03372, sequence (P03372 whole entry, looked up): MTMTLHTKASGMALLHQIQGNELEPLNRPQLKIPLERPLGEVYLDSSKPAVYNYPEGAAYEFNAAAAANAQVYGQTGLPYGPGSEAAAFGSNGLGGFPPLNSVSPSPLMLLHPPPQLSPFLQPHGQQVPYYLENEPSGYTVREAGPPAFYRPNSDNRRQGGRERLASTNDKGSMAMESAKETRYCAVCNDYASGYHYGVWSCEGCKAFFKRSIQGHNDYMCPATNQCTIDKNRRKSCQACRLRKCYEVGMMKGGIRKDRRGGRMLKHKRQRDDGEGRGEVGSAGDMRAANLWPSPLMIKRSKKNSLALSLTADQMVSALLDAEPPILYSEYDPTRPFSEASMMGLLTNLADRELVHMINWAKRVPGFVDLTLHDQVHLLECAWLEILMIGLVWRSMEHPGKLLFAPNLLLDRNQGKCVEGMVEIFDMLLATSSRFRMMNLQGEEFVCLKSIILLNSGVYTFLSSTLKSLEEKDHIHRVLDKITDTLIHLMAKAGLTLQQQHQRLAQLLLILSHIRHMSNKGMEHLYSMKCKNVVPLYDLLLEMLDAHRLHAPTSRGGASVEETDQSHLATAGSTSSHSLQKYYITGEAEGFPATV
smiles,measurement,setting,value
O=C(O)CN(CC(=O)O)CC(=O)O,Potency,[1],inactive
same,Potency,[2],inactive
same,Potency,[3],inactive
O=c1cc(-c2ccccc2)oc2ccccc12,Potency,[1],"inconclusive: 68.2 µM [cytotoxic, partial curve, poor fit]"
same,Potency,[4],active: 7.7 µM and active: 3.83 µM
same,Potency,[3],"inconclusive: 43.3 µM [cytotoxic, partial curve]"
same,Potency,[5],"inactive and inconclusive: 30.5 µM [cytotoxic, partial curve]"
same,Potency,[6],"inconclusive: 9.63 µM [activator, partial curve, poor fit]"
same,Potency,[7],"inconclusive: 30.6 µM [inhibitor, partial curve] and active: 15.3 µM"
same,Potency,[8],inconclusive: 32.3 µM
same,"activity, negative = inhibition",[8],inconclusive: -30.5%
same,Potency,[9],"inconclusive: 68.2 µM [cytotoxic, single point]"
same,Potency,[10],"inconclusive: 68.2 µM [cytotoxic, partial curve, poor fit]"
same,Potency,[11],active: 2.73 µM and active: 4.06 µM
same,Potency,[12],"inconclusive: 2.71 µM [cytotoxic, single point]"
O=C1c2ccccc2C(=O)N1SC1CCCCC1,Potency,[1],"inconclusive: 68.5 µM [cytotoxic, single point]"
same,Potency,[2],"active: 61.1 µM and inconclusive: 54.5 µM [inhibitor, partial curve]"
same,Potency,[3],inconclusive: 61.1 µM [cytotoxic]
same,Potency,[5],"inconclusive: 77 µM [cytotoxic, single point]"
same,Potency,[7],"inconclusive: 68.6 µM [inhibitor, single point]"
same,Potency,[8],"inconclusive: 61.1 µM [rising, single point]"
same,Potency,[10],"inconclusive: 54.4 µM [cytotoxic, partial curve, poor fit]"
same,Potency,[13],"inconclusive: 61.1 µM [cytotoxic, single point] and inconclusive: 54.5 µM [cytotoxic, partial curve]"
CC(C)(C)c1ccc(O)c(C(C)(C)C)c1,Potency,[1],"inconclusive: 60.9 µM [cytotoxic, single point]"
same,Potency,[2],"inconclusive: 38.4 µM [inhibitor, partial curve] and inconclusive: 54.5 µM [inhibitor, partial curve, poor fit]"
same,Potency,[14],"inconclusive: 60.9 µM [cytotoxic, single point] and inconclusive: 48.6 µM [cytotoxic, partial curve]"
same,Potency,[3],"inconclusive: 68.3 µM [cytotoxic, single point] and inconclusive: 68.6 µM [cytotoxic, single point]"
same,Potency,[5],"inconclusive: 54.3 µM [cytotoxic] and inconclusive: 54.5 µM [cytotoxic, partial curve, poor fit]"
same,Potency,[7],"inconclusive: 60.9 µM [inhibitor, partial curve] and inconclusive: 43.3 µM [inhibitor, partial curve]"
same,Potency,[15],"inconclusive: 68.3 µM [cytotoxic, single point] and inactive"
same,Potency,[8],"inconclusive: 68.3 µM [cytotoxic, single point]"
same,Potency,[10],active: 48.4 µM and active: 54.5 µM
same,Potency,[13],"active: 60.9 µM and inconclusive: 68.6 µM [cytotoxic, partial curve]"
O=C(CCCCCCCCc1cccnc1)N1CCC(C=C(c2ccccc2)c2ccccc2)CC1,Potency,[1],"inconclusive: 68.6 µM [cytotoxic, single point]"
same,Potency,[4],active: 27.3 µM
same,Potency,[3],"inconclusive: 68.6 µM [cytotoxic, single point]"
same,Potency,[7],active: 17.2 µM
same,Potency,[8],active: 15.4 µM
same,Potency,[10],active: 21.7 µM
same,Potency,[13],active: 24.3 µM
same,Potency,[16],inactive
same,Potency,[12],"inconclusive: 68.6 µM [cytotoxic, single point]"
COc1ccccc1OCCNCC(O)COc1cccc2[nH]c3ccccc3c12 (configuration not stated),Potency,[1],inconclusive: 26.6 µM [cytotoxic]
same,Potency,[4],"inconclusive: 33.5 µM [inhibitor, single point]"
same,Potency,[5],inconclusive: 29.8 µM [cytotoxic]
same,Potency,[7],active: 21.1 µM
same,Potency,[8],active: 7.5 µM
same,Potency,[10],active: 9.44 µM
same,Potency,[13],active: 11.9 µM
same,Potency,[16],active: 33.5 µM
CCN(CC)C(=S)SSC(=S)N(CC)CC,Potency,[1],"inconclusive: 0.157 µM [cytotoxic, full curve, poor fit]"
same,Potency,[2],"active: 243 nM and active: 279 nM and inconclusive: 211 nM [inhibitor, full curve, poor fit]"
same,Potency,[17],"inconclusive: 11.1 µM [inhibitor, partial curve, poor fit]"
same,Potency,[14],inconclusive: 27.9 µM
same,Potency,[10],"inconclusive: 0.122 µM [cytotoxic, full curve, poor fit]"
same,Potency,[13],"inconclusive: 193 nM [cytotoxic, full curve] and inconclusive: 264 nM [cytotoxic] and inconclusive: 150 nM [cytotoxic, full curve, poor fit]"
same,Potency,[16],inconclusive: 78.8 µM
